According to the supplement of paper PMC10126150:
Sequences with one replicate were seen in a single cluster, so their values are uncertain.

Tested on: ATP
Experiment: switch fluorescence ratio, 500 uM ATP over buffer (Cy3 cluster intensity, sum of 5 cycles each) (fold (ratio)); higher = stronger signal-on switching upon ATP binding; sequences stand for … in TCGTCGGCAGCGTCAGATGTGTATAAGAGACAGTTTTTTTTTTTTTTTTTTTTTTTTT…TC
Conditions: aptamer strand: ATP DNA aptamer (quencher-CACCTGGGGGAGTATTGCGGAGGAAGG + anchor), 100 nM annealed; ATP concentration: 500 uM; one replicate
Outline: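 Five buffer/ATP imaging cycles were run on Cy3-labelled switching-strand clusters on a modified Illumina MiSeq flow-cell, with NaOH stripping and re-annealing between cycles. In each cycle, clusters annealed to 100 nM quencher-labelled ATP aptamer were imaged in selection buffer, then after 15 min with 500 uM ATP at 22 °C. Per cluster, the fluorescence ratio is summed target-cycle over summed buffer-cycle Cy3 intensity, averaged per switch-domain sequence. Only clusters within 100-1000 RFU were kept.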
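Note: ATP exposure 15 min at 22 °C before imaging.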

Row | Sequence | switch fluorescence ratio
1 | ACGGGGGGA | 1.12
2 | AAGGTGTAAA | 0.927
3 | AGGGAGTGTG | 1.03
4 | GGAGGTATT | 1.01
5 | TCTCACTTG | 1.02
6 | ATGTCAAAAA | 0.978
7 | TTCCAACGGG | 1.02
8 | CAGGCCCATG | 0.979
9 | TATGTTCTGT | 0.957
10 | AGTTATCCCG | 1.01
11 | CTCTCGAGCT | 1.05
12 | CGGTTTAGC | 1.04
13 | GTGTGAATTT | 1.02
14 | ATCAAGATGA | 0.981
15 | ATCGTAGGG | 1.01
16 | GGGACCAGGT | 1.03
17 | AAACGCCCGA | 1.17
18 | TTGACAGAGG | 1.01
19 | CTAGCTTAGA | 0.971
20 | ACAAAGTAAT | 1
21 | ACGAACCATA | 1.23
22 | CTAAAGTAGA | 1
23 | GATTCAGTTC | 0.996
24 | GCAGTTAAG | 0.934
25 | CCATGAGGC | 0.988
26 | TGACAGGTT | 1.01

Row | Sequence | switch fluorescence ratio
27 | AGTGCACTA | 0.987
28 | GATTATATAC | 1.1
29 | GTGAGTGTTG | 0.98
30 | GGAAGGTGGA | 1.02
31 | ATAGCTAGGG | 0.984
32 | GAGTAGAAGG | 0.991
33 | CTTACACGGC | 1.07
34 | TTTCAGGAAG | 0.971
35 | CAAGCGTACG | 1.03
36 | GACATTGGA | 0.977
37 | CTGAGGCTAG | 1.15
38 | GGAGCGACGA | 1.02
39 | TGGTCGCT | 1.02
40 | CATGCGTACT | 1.08
41 | CGGCACCTCG | 0.99
42 | AGCCGAGGGG | 1.01
43 | ATTAACTCAT | 1.06
44 | ATCAAATTTG | 0.991
45 | GAGGAGCAGC | 0.972
46 | TAGTTCCCGG | 0.963
47 | TCCTTTATGG | 0.995
48 | GCTTAGAGCA | 0.993
49 | AGTTCCTATT | 1.03
50 | TTTGTAATAG | 1.03
51 | TTATATTATT | 1.06
52 | TCAGGTGATG | 1.21

Row | Sequence | switch fluorescence ratio
53 | GGGTATCATA | 0.96
54 | CGCAGATATG | 1.04
55 | GTTCAGAGTG | 1.02
56 | GAAAAATAGT | 0.975
57 | CCATTGATAT | 0.985
58 | ATAGTACACC | 1.07
59 | CGTTCTTTCA | 0.988
60 | ATAGGAATAC | 3.85
61 | TTGGGCTTCA | 1.01
62 | CCCCCAGGGA | 2.32
63 | GAGTGAAACT | 0.988
64 | AATTTGCTTG | 1.04
65 | CGTGAATCA | 1
66 | GATTTTGGC | 1.06
67 | TGGTACAACA | 1.01
68 | TATTATTGAT | 0.985
69 | GAATATCTT | 0.962
70 | CCATCCATAT | 1.02
71 | TTATACATTT | 1.02
72 | ACACAGGGGT | 1.96
73 | GCAGTGTTTG | 1
74 | GTGCCGGGTA | 1.02
75 | GTTGGTCATG | 0.976
76 | AGCTTGGTAT | 0.992
77 | ACCATTTTTA | 1.05
